From the antibiotic and cytotoxicity screens of Wong et al. (2023)
Some of the results follow.

What follows are compounds tested on HepG2 (assay: cytotoxicity call (relative viability < 0.9)). Conditions: 10 µM.
For `C[C@H]1CN([C@@H](C)CO)C(=O)c2cc(NC(=O)Nc3cccc4ccccc34)ccc2O[C@@H]1CN(C)C(=O)Nc1cccc2ccccc12`, the cytotoxicity call was “inactive”.
With `C[C@H](CO)N1C[C@H](C)[C@@H](CN(C)C(=O)C2CCCCC2)OCCCC[C@H](C)Oc2ccc(NS(=O)(=O)c3ccccc3)cc2C1=O` the cytotoxicity call was “inactive”.
`Cc1ccc(/C=c2\sc3ncnn3c2=O)o1` was tested, and the cytotoxicity call was “inactive”.
For `CNC(=O)C[C@@H]1CC[C@@H]2[C@H](COC[C@H](O)CN2C(=O)c2ccccn2)O1`, the cytotoxicity call was “inactive”.
`O=C(CCCl)NCc1ccccc1` was tested, and the cytotoxicity call was “inactive”.
For `C[C@@H]1CN([C@H](C)CO)C(=O)c2c(c3ccccc3n2C)-c2ccccc2CO[C@H]1CN(C)Cc1ccc(Oc2ccccc2)cc1`, the cytotoxicity call was “inactive”.
In the case of `CCOC(=O)OC(C)OC1=C(C(=O)Nc2ccccn2)N(C)S(=O)(=O)c2ccccc21` (stereo not given), the cytotoxicity call was “inactive”.
`Cc1noc(C)c1S(=O)(=O)Nc1ccc2c(c1)C(=O)N([C@@H](C)CO)C[C@H](C)[C@@H](CN(C)S(=O)(=O)c1cn(C)cn1)OCCCC[C@H](C)O2` was tested, and the cytotoxicity call was “inactive”.
`C[C@@H]1CN([C@@H](C)CO)C(=O)c2cc(NC(=O)NC3CCCCC3)ccc2O[C@@H](C)CCCCO[C@@H]1CN(C)C(=O)Nc1ccc2c(c1)OCO2` was tested, and the cytotoxicity call was “inactive”.
With `O=C(Nc1ccc2c(c1)[C@H]1C[C@H](CC(=O)N3CCc4ccccc4C3)O[C@@H](CO)[C@H]1O2)C1CCOCC1` the cytotoxicity call was “inactive”.
For `COC(=O)/C=C1\N[C@H]2CCCC[C@@H]2NC1=O`, the cytotoxicity call was “inactive”.
In the case of `C[C@@H]1CN([C@H](C)CO)C(=O)c2cc(NS(=O)(=O)c3ccc(Cl)cc3)ccc2O[C@@H](C)CCCCO[C@@H]1CN(C)C(=O)NC1CCCCC1`, the cytotoxicity call was “active”.
With `C[C@H]1CN([C@@H](C)CO)C(=O)c2cc(NC(=O)Cn3cnnn3)ccc2O[C@H]1CN(C)Cc1ccc(-c2ccccc2)cc1` the cytotoxicity call was “inactive”.
In the case of `C[C@@H]1CN([C@@H](C)CO)C(=O)c2cccc(NS(=O)(=O)c3ccccc3)c2O[C@@H]1CN(C)S(C)(=O)=O`, the cytotoxicity call was “inactive”.
With `Cc1cccc(-c2nc3ccccc3n2CCC(C)C)c1` the cytotoxicity call was “inactive”.
In the case of `COCCNC(=O)C[C@H]1CC[C@H](NS(=O)(=O)c2ccc(C)cc2)[C@H](CO)O1`, the cytotoxicity call was “inactive”.
In the case of `Cc1nn(C)c(Cl)c1S(=O)(=O)NC(=O)[C@@]1(C)CCN1C(=O)c1ccccc1CCc1ccccc1`, the cytotoxicity call was “inactive”.
For `Cc1noc(C)c1S(=O)(=O)Nc1cccc2c1O[C@H](CN(C)S(=O)(=O)c1cn(C)cn1)[C@H](C)CN([C@@H](C)CO)C2=O`, the cytotoxicity call was “inactive”.
`C[C@@H]1CN([C@H](C)CO)C(=O)CCCn2cc(nn2)CO[C@@H]1CN(C)S(=O)(=O)c1ccccc1C#N` was tested, and the cytotoxicity call was “inactive”.
With `O=C(NCCCN1CCOCC1)[C@@H]1[C@@H](CO)[C@@H]2Cn3c(ccc(C4=CCCCC4)c3=O)[C@H]1N2` the cytotoxicity call was “inactive”.
For `COC(=O)CCCCCCC(=O)NN`, the cytotoxicity call was “inactive”.
In the case of `C[C@H]1CN([C@@H](C)CO)C(=O)c2cccc(NC(=O)c3ccc(-c4nccs4)cc3)c2O[C@H]1CN(C)CC1CCCCC1`, the cytotoxicity call was “inactive”.
For `CC1(C)C=C(C(=O)N2CCOCC2)C(C)(C)N1`, the cytotoxicity call was “inactive”.
`C[C@@H]1CCCCO[C@H](CN(C)C(=O)Nc2ccc3c(c2)OCO3)[C@H](C)CN([C@H](C)CO)C(=O)c2cc(NC(=O)NC3CCCCC3)ccc2O1` was tested, and the cytotoxicity call was “active”.
`COc1ccc2c3c(n(c2c1)C)[C@H](CO)N(C[C@]13CCN(CC1)C(=O)c1ccccc1)C(=O)Nc1ccccc1F` was tested, and the cytotoxicity call was “inactive”.
With `C[C@@H]1CN([C@H](C)CO)C(=O)c2c(c3ccccc3n2C)-c2ccccc2CO[C@H]1CN(C)C(=O)N[C@H](C)c1ccccc1` the cytotoxicity call was “inactive”.
For `COc1ccc(S(=O)(=O)N(C)C[C@@H]2OCCCC[C@H](C)Oc3ccc(NS(C)(=O)=O)cc3C(=O)N([C@@H](C)CO)C[C@H]2C)cc1`, the cytotoxicity call was “inactive”.
`CCC(=O)N(C)C[C@H]1Oc2ncc(C#C[C@@H](C)O)cc2C(=O)N([C@H](C)CO)C[C@@H]1C` was tested, and the cytotoxicity call was “inactive”.
`C=CCNC(=O)[C@@H]1[C@H]2C(=O)O[C@H](c3ccccc3)[C@H](c3ccccc3)N2[C@H](c2ccccc2OCCO)[C@@]12C(=O)Nc1ccc(C#CC3=CCCCC3)cc12` was tested, and the cytotoxicity call was “inactive”.
`CCCCCN1CC=C[C@@]23O[C@@H]4C=CCOC(=O)[C@@H]4[C@H]2C(=O)N(CCCO)[C@@H]3C1=O` was tested, and the cytotoxicity call was “inactive”.
For `C=CCNC1=C2C[C@H](C)C[C@H](OC)[C@@H](O)[C@H](C)/C=C(\C)[C@H](OC(N)=O)[C@H](OC)/C=C/C=C(\C)C(=O)NC(=CC1=O)C2=O`, the cytotoxicity call was “active”.
With `Cc1ccc(S(=O)(=O)Nc2ccc3c(c2)CC(=O)N([C@@H](C)CO)C[C@@H](C)[C@@H](CN(C)C(=O)Nc2ccc(C(F)(F)F)cc2)O3)cc1` the cytotoxicity call was “inactive”.
With `COc1ccccc1CNC(=O)C[C@H]1CC[C@@H]2[C@H](COC[C@H](O)CN2C(=O)Nc2ccc(F)cc2)O1` the cytotoxicity call was “inactive”.
In the case of `C/C=C/c1cccc(-c2nc(C(=O)NCc3ccc(OC)cc3)cc3c2[C@@H](CCO)N([S@](=O)C(C)(C)C)C3)c1`, the cytotoxicity call was “inactive”.
In the case of `Cc1noc(C)c1NC(=O)Nc1ccc2c(c1)C(=O)N([C@@H](C)CO)C[C@@H](C)[C@H](CN(C)S(=O)(=O)c1ccccc1)OCCCC[C@H](C)O2`, the cytotoxicity call was “inactive”.
In the case of `C[C@H](CO)N1C[C@H](C)[C@H](CN(C)Cc2ccc(F)cc2)OCc2ccccc2-c2c(n(C)c3ccccc23)C1=O`, the cytotoxicity call was “inactive”.
In the case of `COc1ccc(NC(=O)N(C)C[C@H]2Oc3c(NC(=O)c4cnccn4)cccc3C(=O)N([C@H](C)CO)C[C@@H]2C)cc1`, the cytotoxicity call was “inactive”.
For `C[C@@H]1CN([C@H](C)CO)S(=O)(=O)c2ccc(C#CC3CC3)cc2O[C@@H]1CN(C)Cc1ccc(F)cc1`, the cytotoxicity call was “inactive”.
In the case of `CCn1c(-c2nonc2N)nc2cncc(C(=O)N3CC[C@H](N)C3)c21`, the cytotoxicity call was “inactive”.
In the case of `N#CCOc1cccc2ccccc12`, the cytotoxicity call was “inactive”.
